Measurements reported in the supplement of paper PMC12462457.
Counter-ions that a name gives are not always drawn. ± gives the standard deviation of the averaged measurements. The list shows a part of the results.

Tested on: OVCAR8
Test: cell count relative to DMSO vehicle (fold change); OVCAR8 is a high-grade serous ovarian cancer line and CX-5461 an RNA polymerase I inhibitor; higher = more surviving senescent cells (less killing)
Conditions: senescence inducer: CX-5461 3 µM 48 h, then 6 d recovery (CX senescent), exposure time 24 h

| Compound | cell count (compound dose 1 µM) | cell count (compound dose 5 µM) |
| --- | --- | --- |
| O=C(/C=C/c1ccc(O)cc1)c1ccc(O)cc1O [Isoliquiritigenin] | 1.09 ± 0.28 | 1.14 ± 0.16 |
| Oc1c(C(Nc2ccccn2)c2cccs2)ccc2cccnc12 (stereo not given) | 1.17 ± 0.24 | 1.19 ± 0.19 |
| Oc1ccc(C(c2c[nH]c3ccccc23)c2c[nH]c3ccccc23)cc1 | 0.977 ± 0.1 | 1.17 ± 0.042 |
| CN1CCc2c(c3ccccc3n2Cc2ccc(C(=O)NO)cc2)C1 [Tubastatin A] | 1.18 ± 0.1 | 1.11 ± 0.06 |
| CN1CCc2c(c3ccccc3n2Cc2ccc(C(=O)NO)cc2)C1 [Tubastatin A HCl] | 1.14 ± 0.027 | 1.22 ± 0.053 |
| Cc1c(CN2CCN(C(=O)[C@H](C)O)CC2)sc2c(N3CCOCC3)nc(-c3cnc(N)nc3)nc12 [Apitolisib] | 1.13 ± 0.029 | 1.25 ± 0.15 |
| O=C1/C(=C/C=C/c2ccco2)SC(=S)N1NS(=O)(=O)c1ccccc1 | 1.01 ± 0.025 | 1.1 ± 0.034 |
| COc1nc(OCc2cccc(-c3ccccc3)c2C)ccc1CNCCNC(C)=O | 1.18 ± 0.3 | 1.15 ± 0.054 |
| COc1cc(O)c(C(=O)/C=C/c2ccc(O)cc2)c(OC)c1 [Flavokawain C] | 0.9135 ± 0.005 | 0.923 ± 0.093 |
| CCn1cc(-c2ccc3c(c2)CCN3C(=O)Cc2cccc(OC(F)(F)F)c2)c2c(N)ncnc21 | 1.1 ± 0.14 | 1.07 ± 0.17 |
| CNC(=O)c1ccccc1Nc1cc(Nc2ccc(N3CCOCC3)cc2OC)ncc1C(F)(F)F | 1.03 ± 0.059 | 1.18 ± 0.18 |
| CNC(=O)c1cc(Oc2ccc(NC(=O)Nc3ccc(Cl)c(C(F)(F)F)c3)cc2)ccn1 [Sorafenib Tosylate] | 1.18 ± 0.056 | 1.28 ± 0.15 |
| CNC(=O)c1cc(Oc2ccc(NC(=O)Nc3ccc(Cl)c(C(F)(F)F)c3)cc2)ccn1 [Sorafenib] | 1.19 ± 0.044 | 1.15 ± 0.12 |
| COc1cccc2c1C(=O)c1c(O)c3c(c(O)c1C2=O)C[C@@](O)(C(C)=O)C[C@@H]3O[C@H]1C[C@H](N)[C@H](O)[C@H](C)O1 [Daunorubicin (hydrochloride)] | 1.2 ± 0.021 | 0.812 ± 0.12 |
| N#Cc1cc(N2CCC(C(=O)N3N=CC[C@H]3c3cc(F)cc(F)c3)CC2)ncn1 | 1.13 ± 0.054 | 1.25 ± 0.087 |
| COc1ccc(C(CC(=O)N2CCCC2)c2c(OC)cc(OC)c3c(-c4ccccc4)cc(=O)oc23)cc1 (stereo not given) | 1.01 ± 0.19 | 1.03 ± 0.1 |
| Cc1ccc(S(=O)(=O)Cc2nc(-c3ccc(C(=O)NCc4cccnc4)cc3)oc2C)cc1 | 1.05 ± 0.049 | 1.09 ± 0.13 |
| Cc1cn([C@H]2C=C[C@@H](CO)O2)c(=O)[nH]c1=O [Stavudine] | 1.1 ± 0.23 | 1.09 ± 0.24 |
| COc1ccc2[nH]c3c(-c4cccc5ccccc45)nccc3c2c1 | 1.15 ± 0.088 | 1.13 ± 0.083 |
| O=[N+]([O-])c1ccc(Nc2ccccc2-c2ccccc2)c2nonc12 | 1.18 ± 0.044 | 1.12 ± 0.12 |
| O=C(N[C@H]1CCc2cc(F)cc(F)c2NC1=O)c1n[nH]c(Cc2ccccc2)n1 | 0.993 ± 0.069 | 0.996 ± 0.03 |
| N#Cc1c(N2CCCC2)nc(N)c2c(N)nc(N3CCCC3)cc12 | 1.14 ± 0.16 | 1.24 ± 0.27 |

| Compound | cell count (compound dose 1 µM) | cell count (compound dose 5 µM) |
| --- | --- | --- |
| COC(=O)CC[C@H](NC(=O)[C@H](Cc1c[nH]c2ccccc12)NC(=O)OCc1ccccc1)C(=O)N[C@@H](Cc1cnc[nH]1)C(=O)N[C@@H](CC(=O)OC)C(=O)CF | 1.1 ± 0.15 | 1.05 ± 0.16 |
| Oc1ccc(-c2nc(-c3ccc(F)cc3)c(-c3ccncc3)[nH]2)cc1 | 1.06 ± 0.032 | 1.01 ± 0.21 |
| Nc1ccc(-c2ccc3ncc4ccc(=O)n(-c5cccc(C(F)(F)F)c5)c4c3c2)cn1 [Torin 2] | 0.236 ± 0.059 | 0.153 ± 0.03 |
| COc1c(/C=C/C(=O)c2ccc(O)c(CC=C(C)C)c2)ccc(O)c1O [Licochalcone D] | 1.08 ± 0.062 | 0.927 ± 0.017 |
| CC(C)C[C@H](NC(=O)[C@H](Cc1ccccc1)C[C@@H](O)[C@H](Cc1ccccc1)NC(=O)OC(C)(C)C)C(=O)N[C@@H](Cc1ccccc1)C(N)=O | 1.17 ± 0.1 | 1.17 ± 0.17 |
| CC[C@H](CC#N)OC(=O)N[C@@H](C)c1cccc(NC(=O)Nc2ccc(-c3cnco3)c(OC)c2)c1 | 0.993 ± 0.2 | 1 ± 0.16 |
| CN1CCC(Nc2nc(Nc3ccc(Oc4ccccc4)cc3)c3c(=O)[nH]cc(Br)c3n2)CC1 | 1.15 ± 0.18 | 1.19 ± 0.18 |
| CC(=O)O[C@H]1C(=O)[C@@]2(C)[C@H]([C@H](OC(=O)c3ccccc3)[C@]3(O)C[C@H](OC(=O)[C@H](O)[C@@H](NC(=O)c4ccccc4)c4ccccc4)C(C)=C1C3(C)C)[C@]1(OC(C)=O)CO[C@@H]1C[C@@H]2O | 1.17 ± 0.11 | 1.168 ± 0.0085 |
| COc1cccc2c1C(=O)c1c(O)c3c(c(O)c1C2=O)C[C@@](O)(C(=O)CO)C[C@@H]3O[C@H]1C[C@H](N)[C@@H](O)[C@H](C)O1 [Epirubicin (hydrochloride)] | 1.22 ± 0.27 | 0.736 ± 0.013 |
| NC(=O)c1ccc(-c2nc(-c3ccccn3)c(-c3ccc4c(c3)OCO4)[nH]2)cc1 | 0.966 ± 0.16 | 1.03 ± 0.23 |
| CNC(=O)c1ccc2c(c1)ncn2-c1ccc(CC(=O)OC(C)(C)C)cc1 | 0.984 ± 0.19 | 0.952 ± 0.059 |
| CC(C)(C)c1ccc(S(=O)(=O)/C=C/C#N)cc1 | 0.744 ± 0.11 | 0.0645 ± 0.04 |
| COc1ccc2cc(C(C)C(=O)Oc3ccc(C(N)=S)cc3)ccc2c1 (stereo not given) | 1.09 ± 0.23 | 1.15 ± 0.21 |
| COc1ccc(-c2nc(-c3cc(C(F)(F)F)cc(C(F)(F)F)c3)n(Cc3ccc(C(N)=O)cc3)c2-c2ccc(OC)cc2)cc1 [Apoptozole] | 1.04 ± 0.018 | 1.15 ± 0.066 |
| Cc1ccc2ccc(C(Nc3ccccc3)c3ccccc3)c(O)c2n1 (stereo not given) | 1.2 ± 0.22 | 1.16 ± 0.21 |
| C[C@H]1[C@H](C)CC[C@]2(C(=O)O[C@@H]3O[C@H](CO[C@@H]4O[C@H](CO)[C@@H](O[C@@H]5O[C@H](C)[C@H](O)[C@@H](O)[C@H]5O)[C@H](O)[C@H]4O)[C@@H](O)[C@H](O)[C@H]3O)CC[C@]3(C)C(=CC[C@@H]4[C@@]5(C)C[C@@H](O)[C@H](O)[C@@](C)(CO)[C@@H]5CC[C@]43C)[C@H]12 [Asiaticoside] | 1.16 ± 0.074 | 1.03 ± 0.18 |
| CCOC(=O)[C@@H](N)CCC(=O)N[C@@H](CSCc1ccccc1)C(=O)N[C@@H](C(=O)OCC)c1ccccc1 [Ezatiostat] | 1.14 ± 0.26 | 0.998 ± 0.18 |
| Cc1sc2c(c1C)C(c1ccc(Cl)cc1)=N[C@@H](CC(=O)NCCCCCCCCNC(=O)COc1cccc3c1C(=O)N(C1CCC(=O)NC1=O)C3=O)c1nnc(C)n1-2 (stereo not given in full) | 1.14 ± 0.2 | 1.1 ± 0.1 |
| CC(=O)N[C@@H](C)C(=O)N[C@@H](CO)C(=O)NC(C)(C)C(=O)N[C@@H](CC(C)C)C(=O)N[C@@H](CCCN=C(N)N)C(=O)N[C@@H](CCCCN)C(=O)N[C@@H](CC(C)C)C(=O)NC(C)(C)C(=O)N[C@@H](CCCCN)C(=O)N[C@@H](CCCN=C(N)N)C(=O)N[C@@H](CC(C)C)C(=O)N[C@@H](CC(C)C)C(N)=O | 1.13 ± 0.23 | 0.954 ± 0.089 |
| Cn1cc(/C=C2\C(=O)Nc3cccnc32)c2ccccc21 | 0.93 ± 0.074 | 1.073 ± 0.0057 |
| CN1C(=O)C(Cc2c[nH]c3ccccc23)NC1=S (stereo not given) [Necrostatin-1] | 0.987 ± 0.18 | 0.977 ± 0.26 |
| CCC[C@H](N[C@H]1CCc2cc(F)cc(F)c2C1)C(=O)Nc1cn(C(C)(C)CNCC(C)(C)C)cn1 [Nirogacestat] | 1.18 ± 0.07 | 1.21 ± 0.071 |

| Compound | cell count (compound dose 1 µM) | cell count (compound dose 5 µM) |
| --- | --- | --- |
| Cc1cc2c(s1)Nc1ccccc1N=C2N1CCN(C)CC1 | 1.19 ± 0.096 | 1.15 ± 0.031 |
| CCN(CC)CCOc1ccc(Nc2ncc3cc(-c4c(Cl)cccc4Cl)c(=O)n(C)c3n2)cc1 | 0.0835 ± 0.0035 | 0.038 ± 0.014 |
| CCN1CCN(C(c2ccc(C(F)(F)F)cc2)c2ccc3cccnc3c2O)CC1 (stereo not given) | 1.19 ± 0.058 | 1.35 ± 0.021 |
| O=C(O)c1ccccc1O | 1.04 ± 0.19 | 1.12 ± 0.16 |
| Cc1c(-c2c(-c3ccc(F)o3)sc3ncnc(O[C@H](Cc4ccccc4OCc4ccnn4CC(F)(F)F)C(=O)O)c23)ccc(OCCN2CCN(C)CC2)c1Cl | 1.12 ± 0.071 | 1.07 ± 0.047 |
| O=C(O)c1cc(/N=N/c2ccc(S(=O)(=O)Nc3ccccn3)cc2)ccc1O | 1.11 ± 0.23 | 1.27 ± 0.13 |
| COc1ccc(C2=N[C@@H](c3ccc(Cl)cc3)[C@@H](c3ccc(Cl)cc3)N2C(=O)N2CCNC(=O)C2)c(OC(C)C)c1 [Nutlin-3a] | 1.03 ± 0.1 | 1.01 ± 0.087 |
| CCCSc1ccc2[nH]c(NC(=O)OC)nc2c1 | 1.1 ± 0.074 | 1.07 ± 0.1 |
| O=C(CCCCCCC(=O)Nc1cccnc1)NO [Pyroxamide] | 1.14 ± 0.23 | 1.25 ± 0.029 |
| CCc1ccc(CCOc2ccc(CC3SC(=O)NC3=O)cc2)nc1 (stereo not given) | 1.04 ± 0.053 | 0.948 ± 0.084 |
| CN(C)c1nc2c(Br)c(Br)c(Br)c(Br)c2n1CC(=O)O | 1.15 ± 0.11 | 1.16 ± 0.19 |
| CCC(C)(C)C(=O)C(=O)N1CCCC[C@H]1C(=O)O[C@H](CCc1ccc(OC)c(OC)c1)c1cccc(NC(=O)CCC(=O)O)c1 [SLF-amido-C2-COOH] | 1.15 ± 0.18 | 1.22 ± 0.45 |
| O=C(O)CCc1nc(-c2ccccc2)c(-c2ccccc2)o1 | 1.1 ± 0.15 | 1.18 ± 0.24 |
| CN(CCCCCCNc1ccnc2cc(Cl)ccc12)CCCCCCNc1ccnc2cc(Cl)ccc12 | 0.954 ± 0.0071 | 0.118 ± 0.005 |
| O=C(NOCC1CC1)c1ccc(F)c(F)c1Nc1ccc(I)cc1Cl | 1.25 ± 0.11 | 1.08 ± 0.019 |
| Nc1nc(F)nc2c1ncn2[C@@H]1O[C@H](COP(=O)(O)O)[C@@H](O)[C@@H]1O [Fludarabine (phosphate)] | 1.11 ± 0.45 | 1.23 ± 0.46 |
| COc1cc(O)c2c(=O)cc(-c3ccc(OC)c(-c4c(O)cc(O)c5c(=O)cc(-c6ccc(O)cc6)oc45)c3)oc2c1 [Ginkgetin] | 1.12 ± 0.019 | 1.07 ± 0.03 |
| CC1(C)CCC(c2ccc(Cl)cc2)=C(CN2CCN(c3ccc(C(=O)NS(=O)(=O)c4ccc(N[C@H](CCN5CCOCC5)CSc5ccccc5)c(S(=O)(=O)C(F)(F)F)c4)cc3)CC2)C1 [Navitoclax] | 0.465 ± 0.041 | 0.425 ± 0.048 |
| CC(C)C[C@H](NC(=O)[C@H](Cc1ccccc1)NC(=O)c1cnccn1)B(O)O [Bortezomib] | 1.14 ± 0.037 | 0.442 ± 0.043 |
| COc1ccc(-c2coc3cc(O)ccc3c2=O)cc1 | 1.03 ± 0.015 | 1.12 ± 0.023 |
| COc1ncc(-c2nc3c(n2C(C)C)[C@H](c2ccc(Cl)cc2)N(c2cc(Cl)cn(C)c2=O)C3=O)c(OC)n1 [Siremadlin] | 1.05 ± 0.014 | 1.18 ± 0.097 |
